Source: patent publication US20230348569A1
Values joined by “and” are separate entries in the source; they are usually repeats but may differ in a detail not shown here. Identical values can stand only once. Like-named read-outs stand apart in the source and are kept apart here.

Columns and labels:
[1] = molecular target: T1, SARS-COV-2-S RBD extracellular domain expressed with a C-terminal myc-myc-hexahistidine (SARS-COV-2 RBD-MMH) (SARS-CoV-2); conditions: remark: other sources report otherwise
[2] = molecular target: T1, SARS-COV-2-S RBD extracellular domain …; conditions: remark: other sources report otherwise; remark: listed apart in the source

B1: mAb10939 (antibody)
heavy: EVQLVESGGGLVQPGGSLRLSCAASGLTVSSNYMNWVRQVPGKGLEWVSVIYSGGSKFYVDSVKGRFTISRHNSKNTLYLQMNSLRPEDTAVYYCTRDAQYYGMDVWGQGTTVTVSS[human IgG1 constant region left out here]
light: DIQMTQSPSSLSASVGDRVTITCRASQSISTYLHWYQQKPGEAPKLLIYAASSLQSGVPSRFSGSGSGTDFTLTISSLQPEDFATYYCQQSYSTPPEIFGQGTKLEIKRTVAAPSVFIFPPSDEQLKSGTASVVCLLNNFYPREAKVQWKVDNALQSGNSQESVTEQDSKDSTYSLSSTLTLSKADYEKHKVYACEVTHQGLSSPVTKSFNRGEC
- t½ [1]: 1 min

B2: mAb10915 (antibody)
heavy: EVQLVESGGGLVQPGGSLRLSCAASGFTVSSNYMNWVRQAPGKGLEWVSVIYSGGSTFYADSVKGRFTISRHNSKNTLYLQMNSLRPEDTAVYYCARDLGGYFDYWGQGTLVTVSS[human IgG1 constant region left out here]
light: [about 100 residues left out here][about 120 residues left out here]
- t½ [2]: 7.7 min
- t½ [1]: 15.5 min and 5.6 min

B3: mAb10982 (antibody)
heavy: EVQLVESGGGLVQPGGSLRLSCAASGLTVSSNYMSWVRQAPGKGLEWVSVIYSGGTTYYADSVKGRFTISRHNSKNTLSLQMNSLRAEDTAVYYCARGEGANYYGMDVWGQGTTVTVSS[human IgG1 constant region left out here]
light: QSVLTQPPSVSGAPGQRVTISCTGSSSNIGTGYDVHWYQQLPGTAPKLLIYGNSNRPSGVPDRFSGSKSGTSASLAITGLQAEDEADYYCQSYDSSLSGYVVFGGGTKLTVLGQPKAAPSVTLFPPSSEELQANKATLVCLISDFYPGAVTVAWKADSSPVKAGVETTTPSKQSNNKYAASSYLSLTPEQWKSHRSYSCQVTHEGSTVEKTVAPTECS
- t½ [2]: 1.5 min
- t½ [1]: 1.8 min
